Drawing on patent US20130122005A1, “ANTICANCER COMBINATION THERAPY” (priority 2011, published 2013), this text covers % Remaining Phosphorylation for one molecule.

The assay deals with IGF bioactivity in human serum (pooled from healthy donors, 20%). Put plainly: cell-based or functional assay.

B1: antibody 60833 (antibody, human IgG1, lambda)
heavy: QVELVESGGGLVQPGGSLRLSCAASGFTFTSYWMSWVRQAPGKGLELVSSITSYGSFTYYADSVKGRFTISRDNSKNTLYLQMNSLRAEDTAVYYCARNMYTHFDSWGQGTLVTVSS[human IgG1 constant region not printed]
light: DIVLTQPPSVSGAPGQRVTISCSGSSSNIGSNSVSWYQQLPGTAPKLLIYDNSKRPSGVPDRFSGSKSGTSASLAITGLQSEDEADYYCQSRDTYGYYWVFGGGTKLTVLGQPKAAPSVTLFPPSSEELQANKATLVCLISDFYPGAVTVAWKGDSSPVKAGVETTTPSKQSNNKYAASSYLSLTPEQWKSHRSYSCQVTHEGSTVEKTVAPTECS
In the case of B1, the % Remaining Phosphorylation at 15 µg/mL (100 nM) Inhibitor, human serum (20%) induced IGF-1R phosphorylation turned out to be 5%.
